This is a noisy data set.
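Further: [psi-pin-] Saccharomyces cerevisiae expressing SupN fusions, induced by 100 µM Cu2SO4, selected 7 d at 30 °C without adenine and uracil, scored by deep sequencing of output versus input.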

A short description of the first data set: amyloid nucleation score relative to library mode (yeast Sup35 reporter selection) (log enrichment difference); higher = more amyloid nucleation; sequences are the first 22 residues of the Bri2 peptide extended by up to 12 random residues. Conditions: random library (experiment): 1;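 active = nucleation score significantly above 0 at FDR 0.05; inactive = not significantly above 0 or absent from output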.
Take EASNCFAIRHFENKFAVETLICVNTAYESDVWLS: the amyloid nucleation score entry is “inactive”. Same read-out and setting: under EASNCFAIRHFENKFAVETLICVNTFGQVPLYCR stands “inactive”. The same measure, in the same setting: the result for EASNCFAIRHFENKFAVETLICVNTNAFRCQVSV reads “inactive”. On the same count and under the same terms, under EASNCFAIRHFENKFAVETLICVNVDTCKVWSHS stands 5.67; under EASNCFAIRHFENKFAVETLICVP, “inactive”. Take EASNCFAIRHFENKFAVETLICVPAPLDGRASRE: the amyloid nucleation score result was “inactive”.

The sequence EASNCFAIRHFENKFAVETLICVPDHCMNCYCWV gave an amyloid nucleation score of 5.65. Still for that read-out and setting: the result for EASNCFAIRHFENKFAVETLICVPEGWTEGRGQL reads “inactive”; that for EASNCFAIRHFENKFAVETLICVPENGRALYGRF, “inactive”. On the same count and under the same terms, the result for EASNCFAIRHFENKFAVETLICVPFGNALSLEGV reads 0.826. The same measure, in the same setting: under EASNCFAIRHFENKFAVETLICVPFRWNRSRWHH stands 4.13; under EASNCFAIRHFENKFAVETLICVPGEKWRVVVMK, “inactive”. EASNCFAIRHFENKFAVETLICVPGFHRLATGLK: the amyloid nucleation score entry is “inactive”. Same read-out and setting: under EASNCFAIRHFENKFAVETLICVPGKH stands “inactive”; under EASNCFAIRHFENKFAVETLICVPHGVRVALNRR, “inactive”; under EASNCFAIRHFENKFAVETLICVPHKLGGDMSTQ, 3.21. Still for that read-out and setting: the result for EASNCFAIRHFENKFAVETLICVPIRGMAWWWDW reads 3.82; that for EASNCFAIRHFENKFAVETLICVPIRLGRERVSG, “inactive”; that for EASNCFAIRHFENKFAVETLICVPIRSSWIVTFT, “inactive”. On to EASNCFAIRHFENKFAVETLICVPIVATTEFAHM, for which the amyloid nucleation score entry is “inactive”. Same read-out and setting: the result for EASNCFAIRHFENKFAVETLICVPKHQFAWGSYA reads “inactive”; that for EASNCFAIRHFENKFAVETLICVPLLR, “inactive”; that for EASNCFAIRHFENKFAVETLICVPLLYRRRAETG, 3.83. Same read-out and setting: under EASNCFAIRHFENKFAVETLICVPQGRYGCYGWQ stands “inactive”.

Take EASNCFAIRHFENKFAVETLICVPRRFALSVVGA: the amyloid nucleation score entry is “inactive”. With EASNCFAIRHFENKFAVETLICVPRSLMLSRSRA, the amyloid nucleation score entry is “inactive”.

As to EASNCFAIRHFENKFAVETLICVPSCKVEWDV, the amyloid nucleation score is 0.171. On to EASNCFAIRHFENKFAVETLICVPSCMSVELLTS, for which the amyloid nucleation score worked out at 5.37.

Regarding EASNCFAIRHFENKFAVETLICVPSFSSNYSRST, the amyloid nucleation score stood at 3.64. The same measure, in the same setting: the result for EASNCFAIRHFENKFAVETLICVPSTL reads “inactive”; that for EASNCFAIRHFENKFAVETLICVPSWQGPGRHPR, -0.111; that for EASNCFAIRHFENKFAVETLICVPVITNRTWNVA, 4.42. Still for that read-out and setting: the result for EASNCFAIRHFENKFAVETLICVPVKA reads “inactive”; that for EASNCFAIRHFENKFAVETLICVPWVSQYILECC, “inactive”; that for EASNCFAIRHFENKFAVETLICVPYIGAGGDGVA, “inactive”.

For EASNCFAIRHFENKFAVETLICVPYNVSLVYGLR, the amyloid nucleation score result was “inactive”. Still for that read-out and setting: under EASNCFAIRHFENKFAVETLICVQ stands “inactive”; under EASNCFAIRHFENKFAVETLICVQCLFEEDSDKL, 6.67; under EASNCFAIRHFENKFAVETLICVQGSANYSCMFS, 7.01. On the same count and under the same terms, under EASNCFAIRHFENKFAVETLICVQL stands 1.73. On the same count and under the same terms, the result for EASNCFAIRHFENKFAVETLICVQLVIWYQDCNV reads “inactive”. Consider EASNCFAIRHFENKFAVETLICVQMTQSAVWGRA, for which the amyloid nucleation score entry is “inactive”. On to EASNCFAIRHFENKFAVETLICVQMWFLVGPVPR, for which the amyloid nucleation score result is “inactive”.

For EASNCFAIRHFENKFAVETLICVQQR, the amyloid nucleation score entry was “inactive”. With EASNCFAIRHFENKFAVETLICVQQYE, the amyloid nucleation score result was “inactive”. Still for that read-out and setting: the result for EASNCFAIRHFENKFAVETLICVQR reads “inactive”; that for EASNCFAIRHFENKFAVETLICVQRAERREMHRF, 4.03; that for EASNCFAIRHFENKFAVETLICVQRIMQDSVVRW, “inactive”.

On to EASNCFAIRHFENKFAVETLICVQRKELCSSWMG, for which the amyloid nucleation score was 3.05. Still for that read-out and setting: the result for EASNCFAIRHFENKFAVETLICVQRPSQTRSLFT reads 1.23; that for EASNCFAIRHFENKFAVETLICVQVLKWYYCYWE, 5.77; that for EASNCFAIRHFENKFAVETLICVQVRKRQACFGS, “inactive”.

Staying with this data set, now noted: random library (experiment): 2.
Consider EASNCFAIRHFENKFAVETLICVNSYSLLRCKTV, for which the amyloid nucleation score entry is “inactive”.

With EASNCFAIRHFENKFAVETLICVNTSHRNLTDKR, the amyloid nucleation score result was “inactive”. The same measure, in the same setting: the result for EASNCFAIRHFENKFAVETLICVNTYLFVIIFLN reads “inactive”. On the same count and under the same terms, the result for EASNCFAIRHFENKFAVETLICVNVLIGNYGVYK reads 4.41; that for EASNCFAIRHFENKFAVETLICVNWCPMDIMD, 6.82. Same read-out and setting: the result for EASNCFAIRHFENKFAVETLICVNYLRDFSVVRV reads “inactive”; that for EASNCFAIRHFENKFAVETLICVPETYILTMLKT, -0.0583. Consider EASNCFAIRHFENKFAVETLICVPGTYNIADCG, for which the amyloid nucleation score result is “inactive”.

With EASNCFAIRHFENKFAVETLICVPKINRFYLTRE, the amyloid nucleation score worked out at 5.45.

Regarding EASNCFAIRHFENKFAVETLICVPKTLRMLLDSM, the amyloid nucleation score result was “inactive”. On the same count and under the same terms, the result for EASNCFAIRHFENKFAVETLICVPNGNWNIFV reads 5.61; that for EASNCFAIRHFENKFAVETLICVPNVCS, 3.99. Still for that read-out and setting: under EASNCFAIRHFENKFAVETLICVPQRLIIRKMSC stands “inactive”; under EASNCFAIRHFENKFAVETLICVPRVDVRKWEAW, “inactive”; under EASNCFAIRHFENKFAVETLICVPSSDLTSCWIL, “inactive”. Still for that read-out and setting: the result for EASNCFAIRHFENKFAVETLICVPT reads -0.223; that for EASNCFAIRHFENKFAVETLICVPVLSFLFVVHP, 1.26; that for EASNCFAIRHFENKFAVETLICVPYSHVLKKQSW, “inactive”. Sequence EASNCFAIRHFENKFAVETLICVQCLGMSWLRHT had an amyloid nucleation score of 5.46. EASNCFAIRHFENKFAVETLICVQFC came in with an amyloid nucleation score of 7.4. On the same count and under the same terms, under EASNCFAIRHFENKFAVETLICVQITCEFWWVEV stands “inactive”; under EASNCFAIRHFENKFAVETLICVQM, 7.22.

For the sequence EASNCFAIRHFENKFAVETLICVQPYYYIKELAS, the amyloid nucleation score was 0.473. The same measure, in the same setting: the result for EASNCFAIRHFENKFAVETLICVQVMVWHLNGCH reads 1.71.

Still in this data set, the particulars now being: random library (experiment): 3.
For the sequence EASNCFAIRHFENKFAVETLICVNYGFCALCGLA, the amyloid nucleation score came out at 6.78.

For EASNCFAIRHFENKFAVETLICVPATMPYKQMLM, the amyloid nucleation score entry was “inactive”. Turning to EASNCFAIRHFENKFAVETLICVPEEEQSGRAVG, the amyloid nucleation score entry is “inactive”.

With EASNCFAIRHFENKFAVETLICVPEELWPSFVPY, the amyloid nucleation score was 5.21.

In turn, EASNCFAIRHFENKFAVETLICVPEFLASNDFVL showed an amyloid nucleation score of 0.867. On the same count and under the same terms, under EASNCFAIRHFENKFAVETLICVPEYVY stands “inactive”. In the case of EASNCFAIRHFENKFAVETLICVPGLGS, the amyloid nucleation score result was “inactive”. On the same count and under the same terms, the result for EASNCFAIRHFENKFAVETLICVPIRRCMRRAGE reads “inactive”; that for EASNCFAIRHFENKFAVETLICVPITKLARFMWS, 8.27; that for EASNCFAIRHFENKFAVETLICVPLPFLWMVEGT, “inactive”.

As to EASNCFAIRHFENKFAVETLICVPLSLETVRDAG, the amyloid nucleation score is -0.00897. EASNCFAIRHFENKFAVETLICVPMNVWGKLPGL had an amyloid nucleation score of 6.07. Same read-out and setting: the result for EASNCFAIRHFENKFAVETLICVPRC reads 3.93. As to EASNCFAIRHFENKFAVETLICVPRR, the amyloid nucleation score entry is “inactive”.

As to EASNCFAIRHFENKFAVETLICVPRYGGVSVPLG, the amyloid nucleation score result is “inactive”.

On to EASNCFAIRHFENKFAVETLICVPVGSFKMDRQG, for which the amyloid nucleation score entry is “inactive”. As for EASNCFAIRHFENKFAVETLICVPWFSRFHQGMS, the amyloid nucleation score came out at 8.14. Take EASNCFAIRHFENKFAVETLICVPWRNSIVLYEG: the amyloid nucleation score result is “inactive”. Still for that read-out and setting: the result for EASNCFAIRHFENKFAVETLICVQARLWNIDNG reads “inactive”. Consider EASNCFAIRHFENKFAVETLICVQDHEDCEYLW, for which the amyloid nucleation score result is “inactive”. Still for that read-out and setting: the result for EASNCFAIRHFENKFAVETLICVQDPEECVRARA reads “inactive”; that for EASNCFAIRHFENKFAVETLICVQFMALVMHHSR, “inactive”; that for EASNCFAIRHFENKFAVETLICVQLYCT, 3.68.

EASNCFAIRHFENKFAVETLICVQMMGKILISSC: the amyloid nucleation score result is “inactive”. On the same count and under the same terms, the result for EASNCFAIRHFENKFAVETLICVQPAVRQKIHRR reads 3.58; that for EASNCFAIRHFENKFAVETLICVQSAGRPMGAGA, “inactive”; that for EASNCFAIRHFENKFAVETLICVQSDACVDLLSQ, 0.632.

Values taken from the supplement of paper PMC12067230.
